Among all 390,000 compounds or so, about 4,700 (1.2%) were called active. Inconclusive means that the source gave no clear call. Such entries were picked first, then a sample of the others. Calls follow the shape of the dose curve; as a rule, active = well fitted inhibition curve with a large enough effect; inconclusive = small, poorly fitted or top-dose-only effect, or another doubt; inactive = no such curve, though single readings can be large or run the other way. Potencies of inconclusive entries are doubtful fits and often do not repeat.
Each compound was assayed against DNA polymerase eta (Homo sapiens) (UniProt Q9Y253) (assay: qHTS for Inhibitors of Polymerase Eta). Settings: recombinant Pol eta, fluorescent DNA replication assay; series mostly up to 114 µM.
How it was run: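 Fluorescent replication assay: 50 nM final substrate added after a 15 min room-temperature compound preincubation with 10 nM enzyme. Signal taken at 0 min and again at 10 min.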
Potency is read from the fitted curve at half-maximal effect; tags tell the direction and shape of the fitted curve.

Chain of UniProt Q9Y253 (Q9Y253 whole entry, looked up): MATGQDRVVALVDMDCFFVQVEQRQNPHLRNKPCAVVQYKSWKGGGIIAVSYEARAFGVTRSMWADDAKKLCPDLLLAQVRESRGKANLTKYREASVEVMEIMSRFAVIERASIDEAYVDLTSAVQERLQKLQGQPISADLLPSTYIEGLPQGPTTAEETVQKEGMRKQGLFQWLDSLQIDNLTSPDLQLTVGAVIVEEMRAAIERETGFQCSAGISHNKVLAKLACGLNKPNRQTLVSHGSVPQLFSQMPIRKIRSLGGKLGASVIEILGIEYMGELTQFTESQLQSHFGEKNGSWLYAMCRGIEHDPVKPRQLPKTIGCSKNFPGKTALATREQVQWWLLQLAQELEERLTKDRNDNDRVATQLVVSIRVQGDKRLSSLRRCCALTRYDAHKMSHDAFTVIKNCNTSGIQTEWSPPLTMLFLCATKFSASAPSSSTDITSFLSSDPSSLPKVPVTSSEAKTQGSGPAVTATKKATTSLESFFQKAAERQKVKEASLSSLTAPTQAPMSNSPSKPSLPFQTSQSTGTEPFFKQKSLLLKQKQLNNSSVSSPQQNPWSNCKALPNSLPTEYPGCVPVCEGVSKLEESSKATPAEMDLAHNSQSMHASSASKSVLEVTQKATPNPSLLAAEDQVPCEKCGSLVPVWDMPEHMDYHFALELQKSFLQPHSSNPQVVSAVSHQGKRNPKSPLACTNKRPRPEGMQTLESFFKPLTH

For `Cc1ccc(C(C)C)c(OCc2ccc(C(=O)N/N=C/c3ccc(C(=O)O)cc3)cc2)c1`, which Potency is on record?
Its Potency is inconclusive: 20 µM [inhibitor, full curve].

How did the Potency turn out when `Nc1nonc1C(=O)NCCNCc1ccc(Cl)c(Cl)c1` was run?
Its Potency is “inactive”.

With `O=C(NN1C(=O)/C(=C/C=C/c2ccco2)SC1=S)c1ccncc1` as the compound, how does the Potency read?
The Potency was active: 1.41 µM.

How did the Potency turn out when `CC1=Nc2cc(C(=O)NCCCOC(C)C)ccc2Sc2ccc(C)cc21` was run?
The Potency was inconclusive: 79.4 µM [inhibitor, partial curve, poor fit].

How did the Potency turn out when `O=C1C(=Cc2ccco2)CCCC1=Cc1ccco1` was run?
Its Potency is active: 22.4 µM.

With `O=C(O)CCCCCNS(=O)(=O)c1ccc2c3c(cccc13)C(=O)N2` as the compound, how does the Potency read?
Its Potency is inconclusive: 39.8 µM [inhibitor, partial curve, poor fit].

Which Potency does the source give for `CC(C)(C)NC(=O)c1cc2c(ccc3ccccc32)oc1=O` here?
The Potency was inconclusive: 100 µM [inhibitor, partial curve, poor fit].

With `CCCNC(=O)C1CCN(S(=O)(=O)c2ccc3nc4c(c(C(=O)O)c3c2)CCCCC4)CC1` as the compound, how does the Potency read?
The Potency was “inactive”.

With `CC(C)c1ccc(CNC(=O)CCc2ccccc2)cc1` as the compound, how does the Potency read?
Its Potency is “inactive”.

`CC1CCCC(C)N1/N=C/c1ccc(O)c(O)c1` (stereo not drawn) was tested. Which Potency did it give?
Its Potency is inconclusive: 12.6 µM [inhibitor, full curve, poor fit].

How did the Potency turn out when `Cn1c(=O)cc(SCC(=O)N2CCN(c3ccccc3F)CC2)c2cc(Cl)ccc21` was run?
The Potency was “inactive”.

With `CC(=O)c1ccc(N2CCN(c3ncnc4onc(C)c34)CC2)cc1` as the compound, how does the Potency read?
Its Potency is “inactive”.

Which Potency does the source give for `O=C(CNc1cccc(C(F)(F)F)c1)N/N=C/c1cccc(Br)c1` here?
Its Potency is inconclusive: 63.1 µM [inhibitor, partial curve, poor fit].

Which Potency does the source give for `COc1ccc(CCNC(=O)CCSCc2ccccc2Cl)cc1OC` here?
The Potency was “inactive”.

With `CCCCc1ccc(NC(=O)CSc2nc3ccccc3nc2N2CCOCC2)cc1` as the compound, how does the Potency read?
The Potency was inconclusive: 39.8 µM [inhibitor, partial curve, poor fit].

`C=CC1=C(C(=O)O)N2C(=O)[C@@H](NC(=O)/C(=N\OCC(=O)O)c3csc(N)n3)[C@H]2SC1` was tested. Which Potency did it give?
The Potency was active: 7.08 µM.

Which Potency does the source give for `Cn1cc(C(=O)NCCN2CCN(c3cccc(Cl)c3)CC2)c2c3ccccc3n(C)c2c1=O` here?
Its Potency is inconclusive: 89.1 µM [inhibitor, single point].

How did the Potency turn out when `O=C(CCNS(=O)(=O)c1ccc(OC(F)(F)F)cc1)N1CCN(S(=O)(=O)c2cccc(F)c2)CC1` was run?
The Potency was “inactive”.

How did the Potency turn out when `COCCOC(=O)C1=C(C)NC2=C(C(=O)CC(c3cccs3)C2)C1c1ccsc1` (stereo not drawn) was run?
Its Potency is inconclusive: 28.2 µM [inhibitor, single point].

For `NS(=O)(=O)c1ccc(NC(=O)c2ccc3nccnc3c2)cc1`, which Potency is on record?
Its Potency is “inactive”.

How did the Potency turn out when `CCCN(CC(=O)Nc1ccccc1C)C(=O)Cc1c(C)nc2ccccc2c1C` was run?
The Potency was inconclusive: 79.4 µM [inhibitor, partial curve].

With `COc1ccc(C(=O)NC(C)c2cccnc2)cc1S(=O)(=O)N(C)Cc1ccccc1` (stereo not drawn) as the compound, how does the Potency read?
Its Potency is “inactive”.

How did the Potency turn out when `Cc1cc(NS(=O)(=O)c2ccc(NC(=O)/C=C/c3ccco3)cc2)nc(C)n1` was run?
The Potency was active: 28.2 µM.

Which Potency does the source give for `C=CCn1c2ccccc2c2nnc(SCc3[nH]c(=O)[nH]c3C(=O)CCCCC(=O)OCC)nc21` here?
The Potency was inconclusive: 25.1 µM [inhibitor, partial curve, poor fit].

For `O=C(O)c1ccc(N/N=C/c2ccc(-c3ccccc3)cc2)cc1`, which Potency is on record?
The Potency was inconclusive: 79.4 µM [inhibitor, partial curve, poor fit].

Which Potency does the source give for `CCCCOC(=O)c1ccc(NC(=O)c2cnc3n(c2=O)CCS3)cc1` here?
The Potency was inconclusive: 20 µM [inhibitor, partial curve, poor fit].

Which Potency does the source give for `COc1ccc(CCNC(=O)c2ccccc2NC(=O)CN2CCN(c3ccccc3O)CC2)cc1` here?
Its Potency is inconclusive: 89.1 µM [inhibitor, partial curve, poor fit].

Which Potency does the source give for `C=CCn1c(N/N=C/c2ccc(O)cc2)nc2ccccc2c1=O` here?
The Potency was “inactive”.

How did the Potency turn out when `CCN(CC)S(=O)(=O)c1ccc(C(=O)NCCSc2c(-c3ccc(C)cc3)[nH]c3ccccc23)cc1` was run?
The Potency was “inactive”.

For `O=C(NCC1CCCCC1)c1cccc([N+](=O)[O-])c1`, which Potency is on record?
The Potency was “inactive”.

With `O=C(Nc1ccc2nn(-c3ccccc3)nc2c1)c1ccc(Br)o1` as the compound, how does the Potency read?
Its Potency is active: 79.4 µM.

For `CS(=O)(=O)c1ccc(C(=O)OCC(=O)NCc2cccs2)cc1[N+](=O)[O-]`, which Potency is on record?
The Potency was active: 44.7 µM.

`O=C(Nc1ccc2oc(-c3ccncc3)nc2c1)c1ccco1` was tested. Which Potency did it give?
Its Potency is inconclusive: 17.8 µM [inhibitor, full curve].

With `Cc1ccc(C)c(NC(=O)C(C)N2C(=O)c3ccccc3C2=O)c1` (stereo not drawn) as the compound, how does the Potency read?
Its Potency is “inactive”.

`O=C1C(=O)N(CCN2CCOCC2)C(c2ccccn2)/C1=C(/O)c1ccc(F)cc1` (stereo not drawn) was tested. Which Potency did it give?
Its Potency is inconclusive: 39.8 µM [inhibitor, single point].

`Cc1c(OCc2ccc(C(=O)O)cc2)ccc2c(-c3ccccc3)cc(=O)oc12` was tested. Which Potency did it give?
Its Potency is inconclusive: 44.7 µM [inhibitor, partial curve].

Which Potency does the source give for `COCCNC(=O)C(c1ccc(Cl)cc1)N(Cc1ccco1)C(=O)CCC(=O)Nc1ccccn1` (stereo not drawn) here?
Its Potency is “inactive”.

`Cc1ccn2c(=O)nc(SCC(=O)NCc3ccc4c(c3)OCO4)nc2c1` was tested. Which Potency did it give?
The Potency was inconclusive: 20 µM [inhibitor, full curve, poor fit].

`CN1C(=O)c2ccccc2Sc2ccc(NC(=O)NCc3cccc(Cl)c3)cc21` was tested. Which Potency did it give?
Its Potency is “inactive”.

With `C=CCNC(=O)COc1ccc(S(=O)(=O)Nc2ccc(OCC)cc2)cc1` as the compound, how does the Potency read?
The Potency was inconclusive: 89.1 µM [inhibitor, partial curve, poor fit].

How did the Potency turn out when `Cc1cc(C)cc(NC(=O)Cc2ccc(-n3cccc3)cc2)c1` was run?
Its Potency is inconclusive: 17.8 µM [inhibitor, partial curve].

Which Potency does the source give for `COc1ccc(NC(=O)COC(=O)C2CCN(S(=O)(=O)c3cccs3)CC2)cc1` here?
Its Potency is “inactive”.

With `COc1cc([N+](=O)[O-])ccc1NC(=O)C[n+]1ccccc1C` as the compound, how does the Potency read?
The Potency was inconclusive: 3.98 µM [inhibitor, full curve, poor fit].

Which Potency does the source give for `CC(=O)NS(=O)(=O)c1ccc(NC(=O)/C=C/c2ccco2)cc1` here?
Its Potency is “inactive”.

With `Cc1nnc(SCC2=C(C(=O)O)N3C(=O)C(NC(=O)Cn4nc(C)c(Cl)c4C)C3SC2)s1` (stereo not drawn) as the compound, how does the Potency read?
Its Potency is inconclusive: 56.2 µM [inhibitor, partial curve, poor fit].

How did the Potency turn out when `CC(=O)N(C)c1ccc(C=C2C=Cc3ccccc32)cc1` was run?
The Potency was inconclusive: 17.8 µM [inhibitor, partial curve, poor fit].

For `COc1ccc2nc(NC(=O)c3nc(SCc4ccccc4F)ncc3Cl)sc2c1`, which Potency is on record?
Its Potency is “inactive”.

Which Potency does the source give for `COC(=O)c1cc(NC(=O)CN(c2ccc3c(c2)OCO3)S(C)(=O)=O)ccc1Cl` here?
The Potency was inconclusive: 79.4 µM [inhibitor, partial curve, poor fit].

For `Cc1cc(C)n(-c2nc3cc(Cl)ccc3nc2Nc2ccc(CC(=O)O)cc2)n1`, which Potency is on record?
Its Potency is inconclusive: 89.1 µM [inhibitor, single point].

`CN1C(=O)/C(=C/C=C2\SCCN2C)OC1=S` was tested. Which Potency did it give?
The Potency was inconclusive: 31.6 µM [inhibitor, single point].

`Cc1ccccc1C(=O)N=c1ccn(-c2nc3ccccc3nc2NS(=O)(=O)c2ccc(F)cc2)cc1` was tested. Which Potency did it give?
Its Potency is inconclusive: 79.4 µM [inhibitor, partial curve, poor fit].

How did the Potency turn out when `CCN(c1ccccc1)S(=O)(=O)c1ccc(Oc2ccc(-n3ccnc3)cc2)nc1` was run?
The Potency was “inactive”.

With `COc1ccc(/C=N/NC(=O)c2[nH]c3ccc(Br)cc3c2-c2ccccc2)c(C(=O)O)c1OC` as the compound, how does the Potency read?
Its Potency is active: 31.6 µM.

For `CCOC(=O)C1=C(O)/C(=C\c2ccc(CNC(=O)C(=O)Nc3ccccc3)o2)N=C1C`, which Potency is on record?
Its Potency is active: 10 µM.

With `CCN1CCN(c2nc3c(C)cccn3c(=O)c2/C=C(\C#N)S(=O)(=O)c2ccc(C)cc2)CC1` as the compound, how does the Potency read?
Its Potency is inconclusive: 31.6 µM [inhibitor, partial curve, poor fit].

`O=C1c2ccccc2C(=O)N1CCCCN(C(=O)c1cccc([N+](=O)[O-])c1)c1ccc(Cl)cc1` was tested. Which Potency did it give?
The Potency was inconclusive: 56.2 µM [inhibitor, partial curve, poor fit].

How did the Potency turn out when `O=C(NCc1ccc2c(c1)OCO2)C1CC(=O)N(CCc2ccc(Cl)cc2)C1` (stereo not drawn) was run?
The Potency was inconclusive: 100 µM [inhibitor, partial curve, poor fit].

For `COc1ccc(CCNC(=O)c2nnn(CC(=O)Nc3ccc(C)cc3C)c2N)cc1OC`, which Potency is on record?
The Potency was inconclusive: 50.1 µM [inhibitor, partial curve].

For `Cc1csc2c(=O)sc(NC(=O)c3ccco3)nc12`, which Potency is on record?
Its Potency is “inactive”.

How did the Potency turn out when `O=C(O)C1CSC(c2ccccc2)N1C(=O)c1ccco1` (stereo not drawn) was run?
Its Potency is inconclusive: 20 µM [inhibitor, single point].

How did the Potency turn out when `CC(C)(C)c1ccc(CN(Cc2ccco2)c2cnc(S(C)(=O)=O)nc2C(=O)Nc2ccc(F)cc2)cc1` was run?
The Potency was “inactive”.

`C=CCOC(=O)C1=C[C@@H](c2ccc(C(F)(F)F)cc2)C[C@@H](OCCCCO)O1` was tested. Which Potency did it give?
The Potency was inconclusive: 89.1 µM [inhibitor, partial curve, poor fit].

With `CC(C)=NNc1cc([N+](=O)[O-])cc2c1C(=O)N(C)S2=O` (stereo not drawn) as the compound, how does the Potency read?
Its Potency is “inactive”.

Which Potency does the source give for `O=C(Cc1cccs1)NCC1CCCO1` (stereo not drawn) here?
Its Potency is inconclusive: 89.1 µM [inhibitor, single point].

`CCOc1ccc(/C=N/NC(=O)c2[nH]ncc2Br)c(O)c1` was tested. Which Potency did it give?
The Potency was “inactive”.

`CCc1ccc2c(COC(=O)c3n[nH]c4ccccc34)cc(=O)oc2c1` was tested. Which Potency did it give?
Its Potency is inconclusive: 20 µM [inhibitor, partial curve, poor fit].

`COc1ccccc1OCCCOc1c(Cl)cc(C)cc1Cl` was tested. Which Potency did it give?
Its Potency is inconclusive: 79.4 µM [inhibitor, single point].

How did the Potency turn out when `Cc1ccc(-c2cc(C(=O)N/N=C/c3ccc(Cl)cc3)n[nH]2)o1` was run?
Its Potency is inconclusive: 56.2 µM [inhibitor, single point].

— PubChem BioAssay AID588591 (National Center for Advancing Translational Sciences (NCATS), 2011)
